# Measured values reported in PubChem BioAssay AID1466 (National Center for Advancing Translational Sciences (NCATS), 2008).
# Screen size: about 200,000 compounds; about 10 (0.005%) were called active. The shares of active, inactive and inconclusive entries below differ from those in the screen. The call rests on the fitted dose curve; in most records, active means well fitted inhibition curve with a large enough effect; inconclusive means small, poorly fitted or top-dose-only effect, or effect the other way, or another doubt; inactive means no such curve, though single readings can be large or run the other way. No potency is given beside an inconclusive call; the fits are too rough.
# Molecular target: Lysosomal alpha-glucosidase (Homo sapiens) (UniProt P10253)
# Assay: qHTS Assay for Inhibitors of Human alpha-Glucosidase as a Potential Chaperone Treatment of Pompe Disease;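 on activity change, negative = inhibition: plate controls were uninhibited enzyme wells for no effect and no-enzyme background for full effect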
# Conditions: purified human GAA, 4-MU-alpha-glucoside fluorescence; activity change, negative = inhibition: at 76.9 µM (top of the series) unless noted
# Method in brief: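 Activity normalized between no-enzyme (basal) and enzyme-only wells. Conditions: 4 nM human enzyme, 400 uM fluorogenic substrate, citrate/phosphate pH 5.0 with Tween-20, 20 min room temperature, compounds up to 77 uM.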
# Potency means the concentration at half of the fitted maximal effect; tags describe the fitted curve by direction and shape.
Structure (SMILES),Potency,"activity change, negative = inhibition"
Cc1cccc(C)c1-n1c(SCC(=O)NCc2ccco2)nc2ccccc2c1=O,"inconclusive [inhibitor, partial curve]",–
Cc1ccc2nc(NC(=O)c3ccc(NS(=O)(=O)c4cccs4)cc3)sc2c1,"inconclusive [inhibitor, single point]",–
CCc1ccc(/C=C/C(=O)c2cc(Br)ccc(=O)c2O)cc1,"inconclusive [inhibitor, partial curve]",–
CC(=O)Nc1ccc2nc(-c3ccncc3)[nH]c2c1,"inconclusive [inhibitor, single point]",–
CC1(C)CC(=O)CC(C)(C)N1OC(=O)c1ccncc1,"inconclusive [inhibitor, single point]",–
CC(=O)Cn1nnc2sc(-c3ccccc3)cc2c1=O,"inconclusive [activator, partial curve, poor fit]",–
O=c1oc2c(CN3CCCCC3)c(O)ccc2c2c1CCCC2,"inconclusive [activator, partial curve]",–
CC(C)CCN(C)C1CCN(S(=O)(=O)c2cccc(C(F)(F)F)c2)CC1,"inconclusive [inhibitor, partial curve]",–
CCc1ccc(CN2CCN(C(=O)c3cccc(OC)c3OC)CC2)cc1,"inconclusive [inhibitor, single point]",–
COc1cc(/C=N/NC(=O)c2ccncc2)ccc1OC(=O)c1ccc([N+](=O)[O-])cc1,"inconclusive [inhibitor, full curve, poor fit]",–
CCCOC(=O)C1=C(C)NC2=C(C(=O)CC(C)(C)C2)C1c1ccc(N(C)C)cc1 (stereo not given),–,inconclusive: -16.3% [inhibitor]
CCOC(=O)C1CCCN(CC(=O)Nc2c(C(=O)OC)[nH]c3ccc(Br)cc23)C1 (stereo not given),"inconclusive [inhibitor, partial curve]",–
CN1CCN(S(=O)(=O)c2ccc(NC(=O)c3cccc(S(=O)(=O)N4CCCC4)c3)cc2)CC1,"inconclusive [inhibitor, partial curve, poor fit]",–
O=C(NNC1=C(C(=O)C(F)(F)F)CCC1)c1cccc(Cl)c1,"inconclusive [inhibitor, partial curve, poor fit]",–
CCOC(=O)C1CCCN(S(=O)(=O)c2ccc(NC(C)=O)cc2)C1 (stereo not given),"inconclusive [activator, partial curve]",–
CCOC(=O)C1(Cc2ccc(Cl)cc2)CCN(CCCn2cccn2)CC1,–,inconclusive: 19.2% [activator]
Cc1cc(NC(=O)Cn2nc([N+](=O)[O-])c(Br)c2C)no1,–,inconclusive: 16.4% [activator]
COc1ccc(CCN2CC(C(=O)NCCc3ccc(C)cc3)CC2=O)cc1OC (stereo not given),"inconclusive [inhibitor, full curve, poor fit]",–
Cc1ccc(C(=O)Nc2ccc(F)cc2F)o1,–,inconclusive: -15.3% [inhibitor]
CC(=O)Oc1c(C)cc(O)c2ccccc12,–,inactive: 2.32%
CC12CCC(C(=O)Nc3cccnc3)(CC1=O)C2(C)C (stereo not given),–,inconclusive: -17% [inhibitor]
Brc1ccc2nc(N3CCCC3)sc2c1,–,inactive: -7.16%

Structure (SMILES),Potency,"activity change, negative = inhibition"
Cc1cnn(C(=O)c2cc(-c3ccccc3)nc3ccccc23)c1,"inconclusive [inhibitor, single point]",–
O=C(Cn1cncn1)NCc1cccc2ccccc12,"inconclusive [inhibitor, partial curve]",–
Cc1cc(C(=O)Nc2nc(C)c(C(=O)N(C)C)s2)ccc1[N+](=O)[O-],–,inconclusive: -18.7% [inhibitor]
CCc1cc(=O)oc2c(CN3CCN(C)CC3)c(O)c(Cl)cc12,"inconclusive [activator, partial curve]",–
COCCNC(=O)c1ccc(NS(C)(=O)=O)cc1,"inconclusive [inhibitor, full curve, poor fit]",–
COC(=O)c1ccc(CN(c2ccccc2OC)S(=O)(=O)c2cccs2)o1,"inconclusive [inhibitor, single point]",–
COCCNC(=O)C(c1ccc(Cl)cc1)N(CCOC)C(=O)CCC(=O)Nc1nccs1 (stereo not given),"inconclusive [activator, single point]",–
COc1cccc(NC(=O)c2oc3ccccc3c2NC(=O)C(C)(C)C)c1,"inconclusive [inhibitor, partial curve]",–
O=[N+]([O-])c1ccc(-n2nnnc2CN2CCOCC2)cc1,–,inconclusive: 21.7% [activator]
Nc1cc(N)nc(SCC(=O)N2CCN(C(=O)c3ccco3)CC2)n1,"inconclusive [inhibitor, single point]",–
COc1ccc(-c2n[nH]c(=S)n2Cc2ccco2)cc1,"inconclusive [inhibitor, partial curve, poor fit]",–
O=c1c(-c2nnc(SCc3ccc(Cl)cc3Cl)o2)cccn1Cc1ccccc1,"inconclusive [activator, partial curve]",–
COc1cccc(OC)c1C(=O)N1CCN(S(=O)(=O)c2ccccc2)CC1,"inconclusive [inhibitor, partial curve]",–
CCOc1ccc2c(C)c(Cl)c(=O)oc2c1,"inconclusive [activator, single point]",–
Cn1nc(CC(=O)N2CCN(c3ccccc3)CC2)c2ccccc2c1=O,"inconclusive [inhibitor, single point]",–
CCOc1ccc(N(CC(=O)NC2CCCC2)S(=O)(=O)c2c(C)[nH]c(=O)[nH]c2=O)cc1,–,inactive: -2.41%
O=C(CCC1CCCN(C(=O)C2=CCCC2)C1)N1CCN(c2ccccn2)CC1 (stereo not given),–,inconclusive: 15% [activator]
Cn1c(Cc2cccc3ccccc23)nnc1SCC(=O)N1CCN(c2ccccc2)CC1,"inconclusive [inhibitor, single point]",–
CC(C)=C(NC(=O)c1ccccc1)C(=O)NCCCC(=O)O,–,inactive: -2.81%
COc1ccc(CCNC(=O)C2CCN(S(=O)(=O)c3ccc(OC)c(OC)c3)CC2)cc1,–,inconclusive: -18.4% [inhibitor]
CCC(=O)c1ccc(N2CCCCC2)c(F)c1,–,inconclusive: 15.5% [activator]
O=C(CSc1nnnn1C1CCCCC1)N1CCN(C(=O)c2ccco2)CC1,"inconclusive [inhibitor, partial curve, poor fit]",–

Structure (SMILES),Potency,"activity change, negative = inhibition"
COCCNC(=O)c1cnn2c(C(F)(F)F)cc(-c3ccc(C)cc3)nc12,–,inconclusive: 12.5% [activator]
CCc1cccc2c(C=C(C#N)C#N)cn(CC(=O)N3CCCC3)c12,"inconclusive [activator, single point]",–
CC1(c2ccc3ccccc3c2)NC(=O)N(CC(=O)Nc2cccc(S(=O)(=O)N3CCOCC3)c2)C1=O (stereo not given),"inconclusive [inhibitor, single point]",–
CCOC(=O)c1c(C)nc2c(c1C)/C(=N/O)CC(C)(C)C2,"inconclusive [inhibitor, single point]",–
CCCOc1ccc(CCN2CCC(=O)NC2=O)cc1C,"inconclusive [activator, single point]",–
O=C(OCC(=O)N1CCN(C(=O)c2ccco2)CC1)c1cn(-c2ccccc2)nc1-c1ccccc1,"inconclusive [inhibitor, partial curve, poor fit]",–
CCN(CC)c1ccc(C2C(C(=O)OCCOC)=C(C)NC3=C2C(=O)CC(C)(C)C3)cc1 (stereo not given),–,inconclusive: -18.9% [inhibitor]
C[C@H]1C[C@H]2[C@@H]3CCC4=CC(=O)C=C[C@]4(C)[C@@]3(Cl)[C@@H](O)C[C@]2(C)[C@@]1(O)C(=O)CO,"inconclusive [inhibitor, single point]",–
O=C(CSc1nnc(Cn2c(=O)sc3ccccc32)n1-c1ccccc1)N1CCCC1,"inconclusive [inhibitor, single point]",–
CCc1ccc(CNc2ccc(O)cc2)cc1,–,inactive: -7.03%
Cc1ccc(C(=O)CSc2nc(C)cc(SCc3nnc(-c4ccccc4)o3)n2)cc1,"inconclusive [inhibitor, single point]",–
CCCn1c(SCC(=O)NC(=O)NCc2ccco2)n[nH]c1=O,"inconclusive [inhibitor, single point]",–
CCN(CC)S(=O)(=O)c1ccc2c(c1)c(=O)c(C(=O)NCCOC)cn2C,"inconclusive [inhibitor, single point]",–
O=[N+]([O-])c1ccc(Oc2ccc(S(=O)(=O)Nc3ccccc3)cc2)cc1,–,inactive: -9.91%
COCCn1c(C)cc(C2=NNC(=NC3CC3)SC2)c1C,–,inactive: -1.72%
COc1ccccc1N1CCN(C(=O)CCC(=O)O)CC1,–,inactive: 3.72%
C=CCC(=O)OCC(=O)Nc1ccc(Oc2ccccc2)cc1,"inconclusive [inhibitor, single point]",–
COC(=O)c1nc2nc(-c3cccs3)cc(C(F)(F)F)n2n1,"inconclusive [activator, partial curve]",–
CC(=O)N1CCc2cc(S(=O)(=O)NCCC(=O)Nc3cc(C)cc(C)c3)ccc21,"inconclusive [inhibitor, single point]",–
CCN(Cc1ccccc1)C(=O)Cn1c(=O)n(-c2ccc(OC)cc2OC)c(=O)c2c(C)c(C)sc21,"inconclusive [inhibitor, partial curve, poor fit]",–
Cc1ccc(Cn2cc(S(=O)(=O)c3ccc(C(C)C)cc3)c(=O)c3cc4c(cc32)OCO4)cc1,"inconclusive [inhibitor, partial curve]",–
